These are yes or no findings as the source states them, for the method shown. In cells and extracts the contact can be indirect. Some binding calls cover weakened binding; strength is not graded here. For some assays here: Sequences can lack the tags named with a protein. Values belong to the molecule of their own block, whether it stands above or below them.
What was measured:
[1] = molecular target: T1, Flag-tagged Sld2 (budding yeast) (UniProt P34252); test: co-IP; Flag-tagged Sld2 immunoprecipitated from Benzonase-treated whole-cell extract of S phase cells after mild cross-linking (1% formaldehyde, 20 min); 50 mM HEPES-KOH pH 7.5, 140 mM NaCl, 1% TritonX-100; wild-type and pol2-REL cells, with or without Dpb11 overexpression; western blot
T1 sequence: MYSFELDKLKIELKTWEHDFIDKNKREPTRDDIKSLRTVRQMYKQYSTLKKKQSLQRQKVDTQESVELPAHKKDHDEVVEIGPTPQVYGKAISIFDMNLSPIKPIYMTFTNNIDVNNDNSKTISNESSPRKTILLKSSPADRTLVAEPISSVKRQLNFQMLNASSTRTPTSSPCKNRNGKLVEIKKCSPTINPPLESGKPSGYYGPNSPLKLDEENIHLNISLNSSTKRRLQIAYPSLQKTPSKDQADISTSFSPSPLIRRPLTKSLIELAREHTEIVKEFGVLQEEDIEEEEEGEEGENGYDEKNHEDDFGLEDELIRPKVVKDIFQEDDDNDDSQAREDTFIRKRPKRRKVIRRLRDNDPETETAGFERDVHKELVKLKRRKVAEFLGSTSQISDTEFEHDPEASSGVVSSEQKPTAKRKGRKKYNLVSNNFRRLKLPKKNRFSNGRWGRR

Sequences of proteins named here, by UniProt entry; tags and fusion partners are left off. A change or cut given only in a name is not applied to a line headed by its entry. A line that says so, or that is headed by a name, gives the form on record, which may keep a tag or linker.
UniProt P21951: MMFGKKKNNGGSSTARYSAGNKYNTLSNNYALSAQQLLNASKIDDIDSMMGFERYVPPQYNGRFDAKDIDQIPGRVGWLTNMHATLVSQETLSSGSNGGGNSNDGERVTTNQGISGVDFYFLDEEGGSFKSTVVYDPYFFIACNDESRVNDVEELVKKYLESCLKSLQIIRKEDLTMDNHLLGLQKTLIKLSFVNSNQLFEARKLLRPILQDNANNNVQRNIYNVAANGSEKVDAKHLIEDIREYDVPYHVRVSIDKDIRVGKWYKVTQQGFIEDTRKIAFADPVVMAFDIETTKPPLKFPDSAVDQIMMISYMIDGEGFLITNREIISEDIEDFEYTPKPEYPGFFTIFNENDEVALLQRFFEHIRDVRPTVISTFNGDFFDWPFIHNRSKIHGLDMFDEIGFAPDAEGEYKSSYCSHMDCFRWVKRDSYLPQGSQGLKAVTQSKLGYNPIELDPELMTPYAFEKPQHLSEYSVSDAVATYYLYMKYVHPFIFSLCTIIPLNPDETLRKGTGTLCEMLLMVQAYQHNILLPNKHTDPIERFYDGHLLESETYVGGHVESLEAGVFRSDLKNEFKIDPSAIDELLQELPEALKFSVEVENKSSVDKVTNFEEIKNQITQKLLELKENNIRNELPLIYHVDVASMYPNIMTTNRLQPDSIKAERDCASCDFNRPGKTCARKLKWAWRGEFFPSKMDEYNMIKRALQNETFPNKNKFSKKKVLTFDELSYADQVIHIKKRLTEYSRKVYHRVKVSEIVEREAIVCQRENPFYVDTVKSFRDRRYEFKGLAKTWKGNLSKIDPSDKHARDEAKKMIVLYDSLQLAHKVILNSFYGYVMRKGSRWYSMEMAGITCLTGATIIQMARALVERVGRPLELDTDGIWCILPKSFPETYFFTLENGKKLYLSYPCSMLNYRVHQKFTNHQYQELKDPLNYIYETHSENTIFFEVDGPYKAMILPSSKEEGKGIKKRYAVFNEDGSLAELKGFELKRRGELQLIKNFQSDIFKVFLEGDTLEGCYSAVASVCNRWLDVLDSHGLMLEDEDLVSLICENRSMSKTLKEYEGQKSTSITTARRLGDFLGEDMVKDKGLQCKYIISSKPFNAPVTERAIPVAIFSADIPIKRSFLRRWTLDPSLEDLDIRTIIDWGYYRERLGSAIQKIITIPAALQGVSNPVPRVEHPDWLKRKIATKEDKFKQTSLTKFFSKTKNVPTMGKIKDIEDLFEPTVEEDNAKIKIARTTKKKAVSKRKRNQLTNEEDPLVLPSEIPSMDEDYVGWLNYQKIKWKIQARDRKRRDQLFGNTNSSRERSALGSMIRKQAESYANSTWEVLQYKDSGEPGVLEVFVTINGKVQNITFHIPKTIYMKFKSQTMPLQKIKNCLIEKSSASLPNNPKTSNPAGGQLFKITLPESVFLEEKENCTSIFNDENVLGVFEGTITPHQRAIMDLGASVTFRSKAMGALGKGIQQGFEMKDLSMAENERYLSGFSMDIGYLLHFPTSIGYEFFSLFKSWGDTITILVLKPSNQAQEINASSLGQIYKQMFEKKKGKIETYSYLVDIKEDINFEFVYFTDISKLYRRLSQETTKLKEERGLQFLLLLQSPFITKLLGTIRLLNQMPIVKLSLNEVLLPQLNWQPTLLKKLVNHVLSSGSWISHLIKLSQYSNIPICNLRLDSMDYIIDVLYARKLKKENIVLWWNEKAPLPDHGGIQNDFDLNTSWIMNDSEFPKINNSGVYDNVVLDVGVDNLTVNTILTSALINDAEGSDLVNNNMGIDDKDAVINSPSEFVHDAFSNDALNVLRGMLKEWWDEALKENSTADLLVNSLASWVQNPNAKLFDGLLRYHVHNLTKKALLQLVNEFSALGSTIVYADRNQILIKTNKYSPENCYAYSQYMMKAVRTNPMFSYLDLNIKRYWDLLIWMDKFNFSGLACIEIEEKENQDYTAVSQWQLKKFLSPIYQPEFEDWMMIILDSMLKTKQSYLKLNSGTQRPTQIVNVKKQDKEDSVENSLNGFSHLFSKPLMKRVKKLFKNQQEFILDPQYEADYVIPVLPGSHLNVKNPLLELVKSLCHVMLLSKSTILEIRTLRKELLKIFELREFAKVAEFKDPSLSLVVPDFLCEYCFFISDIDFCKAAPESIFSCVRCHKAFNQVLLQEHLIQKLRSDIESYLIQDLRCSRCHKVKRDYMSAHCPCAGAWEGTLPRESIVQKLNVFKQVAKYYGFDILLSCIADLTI
HA-tagged Pol2-REL (P21951, form named): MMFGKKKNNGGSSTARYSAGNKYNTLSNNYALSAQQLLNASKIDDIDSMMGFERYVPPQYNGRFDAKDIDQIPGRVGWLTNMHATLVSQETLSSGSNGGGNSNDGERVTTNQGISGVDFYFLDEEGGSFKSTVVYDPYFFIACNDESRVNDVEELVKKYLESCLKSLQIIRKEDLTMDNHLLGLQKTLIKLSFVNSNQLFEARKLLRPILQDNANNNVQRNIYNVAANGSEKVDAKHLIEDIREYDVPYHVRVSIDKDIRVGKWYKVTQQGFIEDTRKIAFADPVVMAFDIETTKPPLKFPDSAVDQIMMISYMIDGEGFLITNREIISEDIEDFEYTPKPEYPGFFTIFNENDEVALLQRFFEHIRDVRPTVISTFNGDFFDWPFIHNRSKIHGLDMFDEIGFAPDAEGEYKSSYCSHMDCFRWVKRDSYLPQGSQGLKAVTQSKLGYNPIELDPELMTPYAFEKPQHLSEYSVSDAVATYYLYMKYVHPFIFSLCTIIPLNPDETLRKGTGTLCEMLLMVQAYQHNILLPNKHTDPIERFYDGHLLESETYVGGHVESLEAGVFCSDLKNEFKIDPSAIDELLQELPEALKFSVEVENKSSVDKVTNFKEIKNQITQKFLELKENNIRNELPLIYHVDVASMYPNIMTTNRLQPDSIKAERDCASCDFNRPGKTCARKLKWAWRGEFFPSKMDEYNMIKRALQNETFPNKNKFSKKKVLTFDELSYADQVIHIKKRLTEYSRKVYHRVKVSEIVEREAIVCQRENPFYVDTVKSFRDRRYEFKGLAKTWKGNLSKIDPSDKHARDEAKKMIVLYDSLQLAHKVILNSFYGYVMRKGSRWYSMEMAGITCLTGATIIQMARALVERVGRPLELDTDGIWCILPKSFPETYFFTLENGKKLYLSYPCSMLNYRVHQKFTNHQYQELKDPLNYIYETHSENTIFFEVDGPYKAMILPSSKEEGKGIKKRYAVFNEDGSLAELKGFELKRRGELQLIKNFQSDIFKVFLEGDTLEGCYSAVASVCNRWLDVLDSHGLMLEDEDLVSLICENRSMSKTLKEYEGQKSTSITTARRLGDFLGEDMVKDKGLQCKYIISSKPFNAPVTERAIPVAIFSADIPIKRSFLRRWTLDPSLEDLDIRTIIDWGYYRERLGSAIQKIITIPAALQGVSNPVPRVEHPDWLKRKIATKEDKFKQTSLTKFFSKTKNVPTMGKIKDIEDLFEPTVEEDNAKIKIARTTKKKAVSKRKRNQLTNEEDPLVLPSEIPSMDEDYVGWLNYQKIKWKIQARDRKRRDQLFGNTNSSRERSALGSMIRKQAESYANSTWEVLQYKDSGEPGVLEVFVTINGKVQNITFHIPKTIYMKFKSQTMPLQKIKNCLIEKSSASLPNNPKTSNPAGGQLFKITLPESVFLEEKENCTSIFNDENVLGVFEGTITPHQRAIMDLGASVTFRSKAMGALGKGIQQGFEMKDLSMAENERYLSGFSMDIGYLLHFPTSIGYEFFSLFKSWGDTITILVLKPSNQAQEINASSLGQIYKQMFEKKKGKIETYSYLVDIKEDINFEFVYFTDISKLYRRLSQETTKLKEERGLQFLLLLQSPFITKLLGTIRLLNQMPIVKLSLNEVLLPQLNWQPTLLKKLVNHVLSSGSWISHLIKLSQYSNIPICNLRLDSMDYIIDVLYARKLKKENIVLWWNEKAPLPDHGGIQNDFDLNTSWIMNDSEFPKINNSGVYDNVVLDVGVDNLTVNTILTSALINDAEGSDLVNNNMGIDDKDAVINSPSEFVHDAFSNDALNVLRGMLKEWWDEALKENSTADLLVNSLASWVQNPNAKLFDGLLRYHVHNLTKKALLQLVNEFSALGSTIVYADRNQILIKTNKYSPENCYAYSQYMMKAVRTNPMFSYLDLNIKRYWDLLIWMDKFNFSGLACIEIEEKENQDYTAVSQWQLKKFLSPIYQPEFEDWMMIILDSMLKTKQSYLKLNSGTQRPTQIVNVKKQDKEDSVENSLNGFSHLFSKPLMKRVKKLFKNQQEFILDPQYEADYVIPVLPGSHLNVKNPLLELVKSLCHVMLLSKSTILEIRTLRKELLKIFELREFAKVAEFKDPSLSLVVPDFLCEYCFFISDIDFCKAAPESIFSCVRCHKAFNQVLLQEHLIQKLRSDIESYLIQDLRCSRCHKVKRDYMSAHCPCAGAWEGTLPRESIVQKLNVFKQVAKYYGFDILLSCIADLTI

[2] = molecular target: T1, Flag-tagged Sld2 (budding yeast); test: co-IP; as a3, but G1 phase cells
[3] = molecular target: HA-tagged Pol2 (wild type) (budding yeast) (UniProt P21951); test: co-IP; HA-tagged Pol2 (wild type or REL) immunoprecipitated, done as the Sld2 IP (mild formaldehyde cross-linking, Benzonase-treated whole-cell extract); G1 or S phase cells at 24 °C, or 37 °C with galactose-induced Dpb11 overexpression; western blot
[4] = molecular target: HA-tagged Pol2-REL (budding yeast) (UniProt P21951); test: as above

binding [1]: binds weakly
Molecule: HA-tagged Pol2-REL (from UniProt P21951 1-2222)

binding [2]: no binding (condition: G1 phase cells)
binding [1]: binds
Molecule: HA-tagged Pol2 (wild type) (from UniProt P21951 1-2222)

binding [3]: binds
binding [4]: binds
B1: Dpb2 (protein, UniProt P24482 1-689)
chain: MFGSGNVLPVKIQPPLLRPLAYRVLSRKYGLSIKSDGLSALAEFVGTNIGANWRQGPATIKFLEQFAAVWKQQERGLFIDQSGVKEVIQEMKEREKVEWSHEHPIQHEENILGRTDDDENNSDDEMPIAADSSLQNVSLSSPMRQPTERDEYKQPFKPESSKALDWRDYFKVINASQQQRFSYNPHKMQFIFVPNKKQNGLGGIAGFLPDIEDKVQMFLTRYYLTNDRVMRNENFQNSDMFNPLSSMVSLQNELSNTNRQQQSSSMSITPIKNLLGRDAQNFLLLGLLNKNFKGNWSLEDPSGSVEIDISQTIPTQGHYYVPGCMVLVEGIYYSVGNKFHVTSMTLPPGERREITLETIGNLDLLGIHGISNNNFIARLDKDLKIRLHLLEKELTDHKFVILGANLFLDDLKIMTALSKILQKLNDDPPTLLIWQGSFTSVPVFASMSSRNISSSTQFKNNFDALATLLSRFDNLTENTTMIFIPGPNDLWGSMVSLGASGTLPQDPIPSAFTKKINKVCKNVVWSSNPTRIAYLSQEIVIFRDDLSGRFKRHRLEFPFNESEDVYTENDNMMSKDTDIVPIDELVKEPDQLPQKVQETRKLVKTILDQGHLSPFLDSLRPISWDLDHTLTLCPIPSTMVLCDTTSAQFDLTYNGCKVINPGSFIHNRRARYMEYVPSSKKTIQEEIYI

binding [2]: no binding (condition: G1 phase cells)
binding [1]: binds
B2: Psf1 (protein, UniProt Q12488 1-208)
chain: MYGDLGNKLVLEAKRTKQLYARSNQDVNLPMYHEDIIRNILKEVSNLRKNTEYLKEQQQLGMLDDKVAKCQYFVTLLCMERNKRCLLAYQRLRTDILDSMAWNNNGLDLMSSITFSQQDTNNLSHQEQEYLKEYCDLITDLKSGDLVDIDLSGSLVPPSDVFIDVRVLKDAGEIQTEYGVFNLIKDSQFFVRQSDVERLIQQGYLQKI

binding [2]: no binding (condition: G1 phase cells)
binding [3]: binds
binding [4]: binds
binding [1]: binds
B3: Dpb11 (protein, UniProt P47027 1-764)
chain: MKPFQGITFCPTAINNEILAKKISKKIIKLGGIFSKDLTRQVNVLVVGSTTNTNKFKFAVKHRFDIIFIDIQAIDDIYQLWLSGENILPDSNTATMTGSTYEMLKILYRRFSFKYLHNFNIFIGRITDTNITSIDSLVRSIKKLGCSSYNYQNFVIKDTSSHNDDDDQGQNGQISIFVTDTLLGARVNAAIEQNIPIVHFKWILDCQKRSALLPYDPYYLLPNIKDLPYDSIGSNSCDCWDKINTTFPTNIDAQSSLQRQQSSSTLTPSLPKTSSLLNKFKPKGEKIWDKAMSLQQHSKTNFSVLGQSPLSINNKQEDLSDNSTLIFKNCAFIIHHIFPGNHRSILTKIVVQNGGKIETSYLSGIYDHSYYIIPSNKALDSFNDLPEIIDDNDGIVTEFFIERCLYYQKLLHPIDLWSKPFLSTIEFQVSSSSKLLHHEFSSSPFLNVTITGFSGVELLHLTKVLNLLKPMGINYVEYLNKSTDILLINLAALPSIPKTHPLWSNEFSDLFTQFCINNNNDDPGDNNRKDFQNNSILRNSMKRKIEYIKKFHSIPVVTPAFIFKLLSAASGENNEIFLNNIKWCIICPRGHKDDFKCKIKKPYYTSISSEKKYQNNDPKIDKTILLKRNNSSLSEHSMKDTKNELLQKIRETDSGRKKRSVSSSIMDVSSERQMPDTKRIKLESLPKNFVPKQIKRTTSWGTIMSENVPTEQPTAISNPEEIPRTEEVSHTQVTYGSIQDKKRTASLEKPMRRQTRNQTKELDS

Reference: article PMC7228970
